The supplement of paper PMC10126150
Values marked as one replicate rest on one cluster of the flow cell; about a third of the high ones do not repeat.

Tested on: ATP
Experiment: switch fluorescence ratio, 500 uM ATP over buffer (Cy3 cluster intensity, sum of 5 cycles each) (fold (ratio)); higher = stronger signal-on switching upon ATP binding; sequences stand for … in TCGTCGGCAGCGTCAGATGTGTATAAGAGACAGTTTTTTTTTTTTTTTTTTTTTTTTT…TC
Conditions: aptamer strand: ATP DNA aptamer (quencher-CACCTGGGGGAGTATTGCGGAGGAAGG + anchor), 100 nM annealed; ATP concentration: 500 uM; one replicate
Outline: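 For every switch-domain sequence, the fluorescence ratio is the mean of per-cluster values, each being summed target-cycle Cy3 intensity over summed buffer-cycle Cy3 intensity. Clusters outside 100-1000 RFU were excluded. On a modified Illumina MiSeq flow-cell, the Cy3-labelled switching-strand clusters were annealed to 100 nM quencher-labelled ATP aptamer, imaged in selection buffer and then after 15 min with 500 uM ATP at 22 °C. Five such cycles were run, with NaOH stripping and re-annealing between them.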
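Further: ATP exposure 15 min at 22 °C before imaging.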

| Sequence | switch fluorescence ratio |
| --- | --- |
| AATACGCCGT | 1.04 |
| ATAATAAATG | 0.997 |
| TTAGGTGATA | 1.01 |
| TACGGGCCGC | 1.03 |
| CGGGCGCCGG | 0.992 |
| ATAAATCTGT | 0.997 |
| TGGCTCTG | 1 |
| TGAGACGGTT | 0.996 |
| TTCATGCG | 0.923 |
| GACAGTAATT | 1.03 |
| TCTGGGAGAC | 1.23 |
| GAAGTAGCCA | 1.02 |
| GCGTTGAT | 0.981 |
| CGCCCATGCG | 1 |
| AGGAGGCTGA | 1 |
| CGTAGGCAAT | 1.73 |
| TGGACCCTCA | 1.01 |
| TGCCGCTGCG | 1.08 |
| ACGGTGTCGC | 0.989 |
| AGATACCATT | 1.02 |
| GAATCCGTAA | 3.7 |
| GGTTGGATGT | 1.01 |
| TTTCTTAAAG | 1.06 |

| Sequence | switch fluorescence ratio |
| --- | --- |
| GCTTTGGTAA | 0.974 |
| TGCCGTTGAA | 1.04 |
| GGTTTCTG | 1.04 |
| GGAATCGTAT | 1.01 |
| TCTCAAAAA | 1.07 |
| ACTGGATAAG | 0.957 |
| AGAAGCAAAC | 2.85 |
| ATGAAAT | 0.982 |
| TATACCTCT | 1 |
| ATTTTGATGG | 0.954 |
| ATACATACGA | 1.38 |
| TGGATGGTCC | 0.993 |
| GAGAGTTCGC | 1.07 |
| CGATGGGCTC | 1.02 |
| TAGAGAACTT | 1.02 |
| CATGTATTC | 0.933 |
| AGCGTGTATC | 1.02 |
| AGACTGGTGA | 1.08 |
| TTGGACAGAT | 1.03 |
| GGGGTGATTA | 1 |
| GCAAGGCTGA | 1.03 |
| ATTTAGTCT | 0.932 |
| CTCCTCCTTG | 1.38 |

| Sequence | switch fluorescence ratio |
| --- | --- |
| GTTGTTAAT | 1.03 |
| TGCGAGCTTA | 1.03 |
| GGCAGAAAGG | 1.01 |
| GAGGAAGTAA | 1.07 |
| CGATAAGGCA | 1.02 |
| CTCTCCCCCG | 2.24 |
| TCAATGAACT | 1.01 |
| TAATTATATA | 0.975 |
| GAAGGGCCTT | 1.01 |
| GCTGGGAGA | 1 |
| ATTCCACGCT | 1.31 |
| GATCTTTGAG | 0.942 |
| ACCCATGTGG | 1.07 |
| CCTTATAACG | 1.01 |
| TACGCCCGAA | 1.02 |
| GTTGGCAAGA | 0.981 |
| TGTCACTGAA | 1.05 |
| ACCACTCTCA | 0.992 |
| TATCTGTATG | 0.959 |
| TTTGAAATTG | 1.05 |
| TCCTCTACTA | 1.48 |
| CAATTAGCGA | 1.08 |
| GCGAGAGCTT | 1 |

| Sequence | switch fluorescence ratio |
| --- | --- |
| CTTGTTGTC | 1 |
| GAAAAATAAA | 0.922 |
| TTACGGTTTG | 1 |
| AGAGCCTAAA | 0.939 |
| TTGATTACGG | 1 |
| AGTCTCTGTG | 0.977 |
| AAGCGTGGAC | 0.998 |
| ATTCAGGGCC | 0.987 |
| GTTTATGGCT | 1.04 |
| CTCCTACGAT | 1.47 |
| CCACCTTGAA | 0.995 |
| CGTCATGGAG | 0.974 |
| TTGCCCGATG | 1 |
| GTTAGTAGAA | 0.958 |
| AATTCTTGAC | 1.01 |
| TGTGGCTCAG | 1.01 |
| CGGGTTCGTT | 0.995 |
| AGAGGACCAC | 0.993 |
| TCTGTGACGT | 1.03 |
| ACTTCCCTCT | 1.16 |
| AAGAGCAGGT | 1.03 |
| TGTGGAGGGT | 0.98 |
| ATGAAAAAGG | 1.01 |

| Sequence | switch fluorescence ratio |
| --- | --- |
| AGTCTGAGAT | 0.968 |
| CTACGCAGCT | 5.95 |
| TTGACAAAAG | 1.07 |
| ATAAATACGG | 0.979 |
| CGGCGGACGA | 0.999 |
| TCCCGGACAG | 1.02 |
| CCCATAT | 1.06 |
| AGTTGTTAGC | 1.04 |
| TCCGGGGAAG | 0.992 |
| GTTTTGCACT | 1.01 |
| AGCTGTAA | 1.01 |
| TCAAAGGGT | 1.02 |
| TCGGTCGC | 0.955 |
| AAACCAGTAA | 0.967 |
| TATTACACCG | 1.06 |
| ACGAGGGGTG | 0.988 |
| GTTTATTAGC | 0.99 |
| TCGAATATAG | 0.986 |
| TCCTTTACA | 1.03 |
| AAAGATGC | 1 |
| TTAATTACAT | 1.02 |
| CTGGCAGGCG | 1.04 |
| AGTATATGA | 0.993 |

| Sequence | switch fluorescence ratio |
| --- | --- |
| TTCGTGAGTT | 0.98 |
| GATACTCGTT | 0.954 |
| CATATGTAAC | 1.03 |
| GAATCGTAAG | 0.996 |
| CCGTGCTGGG | 1.09 |
| CGGCGGTAGA | 1.01 |
| ATTAGATGGG | 0.981 |
| GACACGCATA | 2.15 |
| CATGTCTGGT | 0.973 |
| GTTGCGAAGC | 1.06 |
| TTAACATGCA | 1.02 |
| AGACTGGTCC | 1.05 |
| TATGGGATAG | 0.983 |
| GCCATAAGTC | 1.28 |
| GCTTTCGGAA | 1.14 |
| CTTTGGCGCT | 0.983 |
| AGGTAATTAC | 0.966 |
| ACAAGGAGGA | 1.03 |
| TAGGGGAGG | 0.992 |
| TTTGTGTACC | 1.11 |
| CCTGTGAAGA | 1.01 |
| TAGTGGTCGT | 1.02 |
| TCACCCCGC | 1.24 |

| Sequence | switch fluorescence ratio |
| --- | --- |
| GTATCATCGC | 0.991 |
| CGCGATATGC | 2.85 |
| GGGATTAGCC | 0.936 |
| GCGGTATTGA | 0.985 |
| TCGCCCATGA | 0.976 |
| CTCGTGTTCA | 1 |
| CTGGTAACAT | 1.01 |
| TGTGCGAGCA | 1.02 |
| AAATGCAACG | 1.03 |
| TAGATTATGT | 0.975 |
| CAGAGGGTCA | 0.962 |
| ATGGTCTACT | 1.03 |
| TCAATTAA | 1.07 |
| ACAGTGATTG | 1.04 |
| ACGGGGTTCA | 0.972 |
| GTAAGTGTGG | 0.99 |
| GTCGCCTCGG | 1.01 |
| GACTCAGCTG | 1.04 |
| CGTATCTCCA | 1.07 |
| GCCTGACTTT | 1.18 |
